Among all 360,000 compounds or so, about 6,000 (1.7%) were called active. Inconclusive results, whose numbers are uncertain, are shown with a selection of clear calls. The call rests on the fitted dose curve; in most records, active means well fitted cell-killing curve with a large enough effect; inconclusive means small, poorly fitted or top-dose-only effect, or effect the other way; inactive means flat fitted curve, though single readings scatter. Potencies of inconclusive entries are left out as doubtful fits.
Assay: qHTS for induction of synthetic lethality in tumor cells producing 2HG: qHTS for the HT-1080-NT fibrosarcoma cell line;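 further: NT is the 2HG producing partner of a matched IDH1 knockdown line; nearly all actives have a fitted effect of over 55% in size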;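 on activity, negative = less viability: 0% = DMSO-treated cells and -100% = media-only wells without cells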
Details: HT-1080-NT fibrosarcoma viability, CellTiter-Glo ATP luminescence, 48 h; activity, negative = less viability: at 46.1 µM (top of the series)
In short: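 A 48-hour cytotoxicity screen used HT-1080-NT cells plated 2 hours before compound delivery. ATP-based CellTiter-Glo luminescence measured viability, normalized to DMSO and no-cell controls.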
Potency means the concentration at half of the fitted maximal effect; tags describe the fitted curve by direction and shape.

Question: Which Potency does the source give for `O=C1NCN(c2ccccc2)C12CCN(C(c1cc3ccccc3o1)c1nnnn1C1CCCCC1)CC2` (stereo not drawn) here?
Answer: inconclusive [cytotoxic, single point]

Question: For `O=C(COc1ccc(Cl)cc1)N(c1ccc(Cl)cc1)C1CN2CCC1CC2` (stereo not drawn), which Potency is on record?
Answer: active: 16.4 µM

Question: With `CCOC(=O)c1cc2ccccc2n1C1CCN(Cc2ccccc2)CC1` as the compound, how does the Potency read?
Answer: inconclusive [cytotoxic, single point]

Question: With `CN(C)CC(C(=O)Cc1ccccc1)c1ccccc1` (stereo not drawn) as the compound, how does the Potency read?
Answer: active: 16.4 µM

Question: With `Oc1ccc2c3c1O[C@H]1c4[nH]c5ccccc5c4C[C@@]4(O)[C@@H](C2)N(CC2CC2)CC[C@]314` as the compound, how does the Potency read?
Answer: inconclusive [cytotoxic, single point]

Question: For `CCOC(=O)Cn1cc(/C=N/NC(=O)CC#N)c2ccccc21`, which Potency is on record?
Answer: inconclusive [cytotoxic, single point]

Question: For `Cc1sc2c(c1C)C(c1ccc(C(C)(C)C)cc1)=NCC(=O)N2CC(=O)Nc1nccs1`, which Potency is on record?
Answer: inconclusive [cytotoxic, partial curve]

Question: For `COc1ccc(CC(N)c2csc(NC(=O)Nc3ccccc3Oc3ccccc3)n2)cc1` (stereo not drawn), which Potency is on record?
Answer: active: 14.6 µM

Question: For `COc1cc(/C=C2\C[C@H]3[C@@H]4CC=C5C[C@@H](N6CCCC6)CC[C@]5(C)[C@H]4CC[C@]3(C)[C@H]2O)cc(OC)c1OC`, which Potency is on record?
Answer: inactive

Question: For `c1ccc(P(c2ccccn2)c2ccccn2)cc1`, which Potency is on record?
Answer: inconclusive [rising, single point]

Question: With `O=Nc1c(O)c2ccccc2c2ccccc12` as the compound, how does the Potency read?
Answer: active: 6.51 µM

Question: For `CN1CCN(c2ccc([N+](=O)[O-])c(N/N=C3\CN4CCC3CC4)c2)CC1`, which Potency is on record?
Answer: inactive

Question: With `CN1C(=O)C(=Cc2ccccc2OCc2ccc(Cl)cc2)C(=O)N(C)C1=O` as the compound, how does the Potency read?
Answer: inconclusive [cytotoxic, single point]

Question: Which Potency does the source give for `O=[N+]([O-])c1ccc(CN2CC=C(c3ccccc3)CC2)cc1` here?
Answer: inactive

Question: With `COc1cc2cc(C(=O)N3CC(COS(C)(=O)=O)c4ccc(O)cc43)[nH]c2c(OC)c1OC` (stereo not drawn) as the compound, how does the Potency read?
Answer: active: 2.91 µM

Question: For `CN1C(=O)CN=C(c2ccc(Cl)cc2)c2cc(Cl)ccc21`, which Potency is on record?
Answer: inconclusive [cytotoxic, single point]

Question: For `COC(=O)C1=C(c2ccccc2OCc2ccccc2)C[C@@H]2CC[C@H]1N2C(=O)NCc1cccc(F)c1`, which Potency is on record?
Answer: inactive

Question: Which Potency does the source give for `NC(Cc1ccccc1)c1csc(Nc2ccccn2)n1` (stereo not drawn) here?
Answer: inconclusive [cytotoxic, partial curve]

Question: With `COC(=O)C1=C(c2ccc(-c3ccccc3)c(F)c2)C[C@@H]2CC[C@H]1N2C(=O)NCc1cccc2ccccc12` as the compound, how does the Potency read?
Answer: inconclusive [cytotoxic, partial curve]

Question: With `CCOC(=O)C1(CCc2ccccc2)CCN(Cc2ccc3c(c2)OCCO3)CC1` as the compound, how does the Potency read?
Answer: active: 23.1 µM

Question: With `Cc1ccc(C2=NCC(=O)Nc3ccc(Br)cc32)cc1` as the compound, how does the Potency read?
Answer: inactive

Question: With `OC(c1ccccc1)(c1ccc(Cl)cc1)C1CN2CCC1CC2` (stereo not drawn) as the compound, how does the Potency read?
Answer: inconclusive [cytotoxic, single point]

Question: For `Cc1ccccc1-c1ccc2c(c1)CNCc1cnnn1-2`, which Potency is on record?
Answer: inconclusive [rising, single point]

Question: Which Potency does the source give for `CC1N(O)C2CCCCCC2N1O` (stereo not drawn) here?
Answer: inactive

Question: For `COc1ccc(NC(=O)C2Cc3c(-c4cccc(C(C)=O)c4)ccnc3O2)cc1OC` (stereo not drawn), which Potency is on record?
Answer: inconclusive [cytotoxic, full curve, poor fit]

Question: For `CCCCn1nnnc1C(c1cccs1)N1CCC2(CC1)C(=O)NCN2c1ccccc1` (stereo not drawn), which Potency is on record?
Answer: inconclusive [cytotoxic, single point]

Question: With `CC1=CC(=Cc2sc3ccccc3[n+]2C)C=C(C)O1` as the compound, how does the Potency read?
Answer: active: 8.2 µM

Question: For `CCC1(NS(=O)(=O)c2ccc(N)cc2)C(=O)N(C)C(=O)N(C)C1=O`, which Potency is on record?
Answer: inactive

Question: For `COc1cc2c(c(OC)c1OC)-c1ccc(OC)c(=O)cc1C(NC(C)=O)CC2` (stereo not drawn), which Potency is on record?
Answer: active: 0.0146 µM

Question: Which Potency does the source give for `Fc1ccc(CNCCc2ccccc2F)cc1` here?
Answer: inactive

Question: With `O=c1[nH]c2ccccc2n1C1CCN(C(CCc2ccccc2)c2nnnn2Cc2ccccc2)CC1` (stereo not drawn) as the compound, how does the Potency read?
Answer: active: 7.31 µM

Question: For `NC(=O)c1cc([N+](=O)[O-])cc([N+](=O)[O-])c1`, which activity, negative = less viability is on record?
Answer: inconclusive: -18.9% [cytotoxic]

Question: Which Potency does the source give for `COC(=O)C1=C(c2cc3ccccc3s2)C[C@@H]2CC[C@H]1N2C(=O)NCc1ccc(C(F)(F)F)cc1` here?
Answer: inconclusive [cytotoxic, partial curve]

Question: Which Potency does the source give for `Cc1ccc2c(c1)N(C(=O)CCC(=O)N1CCC3(CC1)OCCO3)CC(C)O2` (stereo not drawn) here?
Answer: inactive

Question: Which Potency does the source give for `CCCCC/C(=N/O)c1c(C)[nH]c2ccccc12` here?
Answer: inconclusive [cytotoxic, single point]

Question: With `COc1ccc2c(c1O)-c1c(OC)c(OC)cc3c1[C@H](C2)N(C)CC3` as the compound, how does the Potency read?
Answer: inconclusive [rising, partial curve]

Question: For `O=C1CN=C(c2ccccc2)c2c(sc3c2CCCC3)N1`, which Potency is on record?
Answer: inconclusive [cytotoxic, single point]

Question: Which Potency does the source give for `CC(=O)OC1C2(CC3N4C(=O)C5(CO)SSC4(CC31O)C(=O)N5C)OC(C)C(C)(C)C2=O` (stereo not drawn) here?
Answer: active: 0.651 µM

Question: Which Potency does the source give for `O=C1CC[C@@]2(O)[C@H]3Cc4ccc(O)c5c4[C@@]2(CCN3CC2CC2)[C@H]1O5` here?
Answer: inactive

Question: For `CCOc1cc2c(cc1OCC)-n1cccc1C(c1ccccc1F)NC2` (stereo not drawn), which Potency is on record?
Answer: inconclusive [cytotoxic, single point]

Question: With `CC(=O)O[C@H]1[C@H]2O[C@]23[C@@H]2CC[C@]4(O)C[C@@H](O)CC[C@]4(C)C2CC[C@]3(C)[C@H]1c1ccc(=O)oc1` (stereo partly drawn) as the compound, how does the Potency read?
Answer: active: 0.82 µM

Question: Which Potency does the source give for `CC(=O)O[C@H]1C[C@@H]2OC3C=C(C)CCC3(C)[C@@]1(C)[C@@]21CO1` (stereo partly drawn) here?
Answer: inconclusive [cytotoxic, full curve]

Question: With `NC(=O)c1c(Br)n(C2OC(CO)C(O)C2O)c2ncnc(N)c12` (stereo not drawn) as the compound, how does the Potency read?
Answer: inconclusive [cytotoxic, partial curve]

Question: For `c1ccc(-c2ccc(C(c3ccccc3)n3ccnc3)cc2)cc1` (stereo not drawn), which Potency is on record?
Answer: inconclusive [cytotoxic, partial curve]

Question: Which Potency does the source give for `CC12CCC(O)CC1CCC1C2CCC2(C)C(C3=CC(=O)OC3)CCC12O` (stereo not drawn) here?
Answer: active: 1.46 µM

Question: With `CCCOC(=O)c1ccc(-[n+]2c(-c3ccccc3)cc(-c3ccccc3)cc2-c2ccccc2)cc1` as the compound, how does the Potency read?
Answer: active: 20.6 µM

Question: For `Cc1cc(N2CCNCC2)nc2ccccc12`, which Potency is on record?
Answer: inconclusive [cytotoxic, single point]

Question: For `CC[n+]1c(/C=C/N(C)c2ccccc2)sc2ccc(Cl)cc21`, which Potency is on record?
Answer: inconclusive [cytotoxic, single point]

Question: For `C=CCc1cc(C=C2C(=O)N(C)C(=O)N(C)C2=O)cc(OCC)c1OCc1ccccc1`, which Potency is on record?
Answer: inconclusive [cytotoxic, single point]

Question: For `CN1CCc2cc(O)cc3c2[C@H]1Cc1ccc(O)c(O)c1-3`, which Potency is on record?
Answer: active: 8.2 µM

Question: Which Potency does the source give for `CCN(CC)c1ccc(C=C2C(=O)NC(=S)NC2=O)cc1` here?
Answer: inconclusive [cytotoxic, single point]

Question: With `C=CCOc1c(Cl)cc(CNc2ccc3[nH]c(=O)[nH]c3c2)cc1OC` as the compound, how does the Potency read?
Answer: inconclusive [cytotoxic, single point]

Question: Which Potency does the source give for `CN1C(=O)/C(=C/c2ccc(Cl)s2)C(=O)NC1=S` here?
Answer: inconclusive [cytotoxic, single point]

Question: Which Potency does the source give for `CC1CCCN(C(=O)CCl)C1` (stereo not drawn) here?
Answer: inconclusive [cytotoxic, single point]

Question: Which Potency does the source give for `CN(C)C(=O)Oc1ccnc2cc(Cl)ccc12` here?
Answer: inactive

Question: For `C=C1C(=O)OC2CC(C)C3C=CC(=O)C3(C)C(O)C12` (stereo not drawn), which Potency is on record?
Answer: active: 1.84 µM

Question: For `CCC1(OC(=O)CN)C(=O)OCc2c1cc1n(c2=O)Cc2cc3ccccc3nc2-1` (stereo not drawn), which Potency is on record?
Answer: active: 1.03 µM

Question: With `O=C(O)c1ccc(Cl)nc1` as the compound, how does the Potency read?
Answer: inactive

Question: For `O=C(Cc1ccccc1)OCC(=O)c1ccc(F)cc1`, which Potency is on record?
Answer: inactive

Question: For `NC(=Nc1ccccc1)NN=Cc1c[nH]c2ccccc12`, which Potency is on record?
Answer: inconclusive [cytotoxic, full curve]

Question: Which Potency does the source give for `CCOP(=O)(Nc1ccc2c(c1)C(=NNC(N)=S)c1ccccc1-2)OCC` here?
Answer: inconclusive [cytotoxic, single point]

Question: For `CCCCOP(=O)(OCCCC)C(Nc1ccc(C(=O)OCC)cc1)c1ccncc1` (stereo not drawn), which Potency is on record?
Answer: inconclusive [cytotoxic, single point]

Question: Which Potency does the source give for `CCCc1[nH][nH]c(=O)c1C(c1ccc(Cl)cc1)C(C#N)C#N` (stereo not drawn) here?
Answer: inconclusive [rising, single point]

Question: For `CC(C)n1cc(C(=O)N(CC(=O)NC2CCCC2)Cc2ccccc2)cn1`, which Potency is on record?
Answer: inactive

Question: For `CCOc1ccccc1-n1c(O)c(C=NCCCn2ccnc2)c(=O)[nH]c1=O`, which activity, negative = less viability is on record?
Answer: inconclusive: 31.9%

Question: Which Potency does the source give for `COc1c2c(cc3c1OCO3)CCN(C)C2` here?
Answer: inconclusive [rising, partial curve, poor fit]

Question: With `COc1ccc(CNCCc2ccc3c(c2)OCO3)c(OC)c1OC` as the compound, how does the Potency read?
Answer: inconclusive [cytotoxic, single point]

Question: With `O=[N+]([O-])c1ccc(NC2CCCC2)c2ccncc12` as the compound, how does the Potency read?
Answer: inactive

Question: With `Nc1cc(Cl)c2nonc2c1[N+](=O)[O-]` as the compound, how does the Potency read?
Answer: active: 7.31 µM

Question: For `O=c1c2ccccc2nc(-c2ccccc2Cl)n1-c1ccc(O)cc1`, which Potency is on record?
Answer: inconclusive [cytotoxic, single point]

Question: Which Potency does the source give for `Cc1ccc2c(c1)CCCN2N=O` here?
Answer: inactive

Question: For `CCC(=NCc1cccnc1)c1c(O)n(-c2ccc(Cl)cc2)c(=O)[nH]c1=O`, which activity, negative = less viability is on record?
Answer: inconclusive: 9.08% [cytotoxic]

Question: For `COc1ccc2cc1Oc1ccc(cc1)C[C@H]1c3cc(c(OC)cc3CCN1C)Oc1c(O)c(OC)cc3c1[C@H](C2)N(C)CC3`, which Potency is on record?
Answer: inconclusive [cytotoxic, single point]

Source: PubChem BioAssay AID686970 (National Center for Advancing Translational Sciences (NCATS), 2013)
